Experimental data reported in publication PMC4336329 (PLoS ONE, 2015).
Hit rate of the full screen: of about 310,000 compounds, about 2,200 (0.71%) showed an effect of 50% or more. The effect is printed as a negative number. This is one part of the list.

Biological target: human ether-à-go-go-related gene (hERG) potassium channel (human, UniProt Q12809)
Experiment: primary screen, population patch clamp on CHO cells stably expressing hERG

human ether-à-go-go-related gene (hERG) potassium channel, sequence (Q12809 whole entry, looked up): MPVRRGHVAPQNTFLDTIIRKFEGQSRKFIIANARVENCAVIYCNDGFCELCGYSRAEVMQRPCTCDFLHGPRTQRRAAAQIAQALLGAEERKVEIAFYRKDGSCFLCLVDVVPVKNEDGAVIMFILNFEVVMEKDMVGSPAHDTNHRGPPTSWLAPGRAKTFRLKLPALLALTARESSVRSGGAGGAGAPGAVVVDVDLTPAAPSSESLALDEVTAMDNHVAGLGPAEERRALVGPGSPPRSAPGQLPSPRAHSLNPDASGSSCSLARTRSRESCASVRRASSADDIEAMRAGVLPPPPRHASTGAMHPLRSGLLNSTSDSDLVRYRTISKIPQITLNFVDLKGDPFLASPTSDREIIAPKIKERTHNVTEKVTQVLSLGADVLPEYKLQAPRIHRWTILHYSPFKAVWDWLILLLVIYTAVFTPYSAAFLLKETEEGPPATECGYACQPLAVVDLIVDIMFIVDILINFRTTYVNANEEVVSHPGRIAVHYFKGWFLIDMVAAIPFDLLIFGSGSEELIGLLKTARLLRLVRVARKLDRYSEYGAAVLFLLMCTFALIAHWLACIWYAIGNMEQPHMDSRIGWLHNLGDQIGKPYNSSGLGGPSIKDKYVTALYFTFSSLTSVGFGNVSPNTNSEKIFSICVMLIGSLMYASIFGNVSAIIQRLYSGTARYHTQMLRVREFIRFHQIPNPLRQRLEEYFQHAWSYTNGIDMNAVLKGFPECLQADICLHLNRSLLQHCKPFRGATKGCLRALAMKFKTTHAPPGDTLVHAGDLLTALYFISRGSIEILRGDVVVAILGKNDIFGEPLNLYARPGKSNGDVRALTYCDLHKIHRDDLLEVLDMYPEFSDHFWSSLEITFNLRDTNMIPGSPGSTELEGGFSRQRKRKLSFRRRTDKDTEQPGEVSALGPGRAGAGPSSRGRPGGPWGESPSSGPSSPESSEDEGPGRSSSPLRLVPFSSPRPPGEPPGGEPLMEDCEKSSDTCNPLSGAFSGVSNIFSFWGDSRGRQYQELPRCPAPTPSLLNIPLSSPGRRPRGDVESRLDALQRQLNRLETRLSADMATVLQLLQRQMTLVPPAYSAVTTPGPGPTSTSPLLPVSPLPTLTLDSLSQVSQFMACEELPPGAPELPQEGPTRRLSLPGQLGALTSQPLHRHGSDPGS

Row | SMILES | hERG current change (%, negative = inhibition) at 1uM
1 | COc1cc(S(=O)(=O)NCCc2ccc3c(c2)OCO3)ccc1-n1cnnn1 | -3.05%
2 | Cc1nc(N/N=C/c2ccc(Br)cc2)cc(N2CCOCC2)n1 | 7.64%
3 | O=S(=O)(c1ccccc1)N1CCN=C1SCc1cccc(Cl)c1 | -12.3%
4 | COc1ccc(-c2noc(-c3cccc(OC)c3OC)n2)cc1OC | 20.7%
5 | CCC1Nc2ncnc(N3CCN(c4ccccc4)CC3)c2N(Cc2ccc(C)cc2)C1=O.O=C(O)C(F)(F)F (centres unmarked) | 12.9%
6 | COC(=O)c1ccc(CSc2nc3ccccc3o2)cc1 | -1.78%
7 | CC(=O)Nc1ccc(C(=O)OCC(=O)N2CCCC2)cc1 | 14.6%
8 | Cc1c(C(=O)Nc2cc(F)ccc2F)sc2nc3n(c(=O)c12)CCCCC3 | 18.1%
9 | COC(=O)c1ccc(CC(=O)c2c(C)cc(O)cc2O)o1 | -0.154%
10 | CCN(CC)C(=O)Cn1cc(/C=C(\C#N)C(=O)NC2CC2)c2ccccc21 | 8.04%
11 | CCN(CC)Cc1cc(NC2=NS(=O)(=O)c3ccccc32)ccc1OC(=O)c1ccccc1.Cl | -27.9%
12 | Cc1ccc(S(=O)(=O)N2CCN(CC(=O)NC3CCCc4ccccc43)CC2)c(C)c1 (centres unmarked) | 1.55%
13 | CC(C)N1CC2=C(OC(N)=C(C#N)C2c2cccnc2)/C(=C/c2cccnc2)C1 (centres unmarked) | 2.83%
14 | O=C(CCS(=O)(=O)c1ccc(Cl)cc1)Nc1nc(-c2cccnc2)cs1 | 9.46%
15 | CC(=O)c1ccc(N2CCN(S(=O)(=O)c3c(C(=O)N4CCCC4)c(C)n(C)c3C)CC2)cc1 | 16.7%
16 | COCCCNC(=O)CCc1nnc2ccc(N3CCC(C)CC3)nn12 | 12.7%
17 | CCOc1ccc(C(=O)Cc2ccc3oc(C(=O)O)cc3c2)c(O)c1 | 0.361%
18 | O=C(c1ccco1)N1CCN(C2c3ccccc3-c3ccccc32)CC1 | 11.9%
19 | COc1ccc(NC(=O)c2ccc3c(=O)n(-c4ccc(OC)cc4OC)c(=S)[nH]c3c2)cc1 | 10.8%
20 | O=C(O)c1cccc(-n2cnnn2)c1 | 10.6%
21 | Clc1cnc(N/N=C/c2ccco2)c(Cl)c1 | -4.51%
22 | CCN(CC)Cc1cc(C(=O)O)c(C)o1 | 12.1%
23 | CC(C)c1ccc(NC(=O)c2cc(S(=O)(=O)N3CCCC3)c[nH]2)cc1 | 10.4%
24 | Cc1ccccc1NC(=O)CNC(=O)c1ccc(C(F)(F)F)cc1 | 14.1%
25 | Cc1nnc(SCC(=O)NC(=O)NCc2ccco2)s1 | 9.29%
26 | CC(C)n1nc(C(=O)NCCc2ccc(S(N)(=O)=O)cc2)c2ccccc2c1=O | 0.485%
27 | CCN1C(=O)/C(=C\c2ccc(-c3cccc(C(=O)OC)c3)o2)SC1=Nc1ccc(C(=O)O)cc1 | 16%

Row | SMILES | hERG current change (%, negative = inhibition) at 1uM
28 | N#Cc1cccc(C#N)c1Oc1ccc(S(=O)(=O)Nc2ccc(Cl)cc2)cc1 | 13.7%
29 | COc1ccc(C)cc1NC(=O)C1CCCN1S(=O)(=O)c1ccc2c(c1)CCC(=O)N2 (centres unmarked) | -5.18%
30 | CC(=O)NC(CC(=O)NNC(=O)c1cccs1)c1ccccc1 (centres unmarked) | 21.1%
31 | COCCNS(=O)(=O)c1ccc(OCC(=O)N2CCc3ccccc3C2)c(Cl)c1 | 4.25%
32 | CC1N(C(=O)N2CCOCC2)CCN1S(=O)(=O)c1cccc(C(F)(F)F)c1 (centres unmarked) | 15.9%
33 | Cc1cc(C)n(-c2c(F)c(F)c(CO)c(F)c2F)n1 | 8.69%
34 | COC(=O)c1cc(OC)c(OC)cc1NC(=O)c1ccc(C)o1 | 13%
35 | COc1ccc(OC)c(CN2CCN(S(=O)(=O)c3ccc(NC(C)=O)cc3)CC2)c1.O=C(O)C(=O)O | 4.38%
36 | O=C(Nc1cccc(C(=O)O)c1)/C(=C\c1ccccc1)NC(=O)c1ccccc1Cl | 7.16%
37 | COc1ccc(Cc2nc3ccc(C(=O)N4CCCCC4CCO)cc3o2)cc1 (centres unmarked) | 10.1%
38 | Cc1cc(C(=O)Cn2nc(C(=O)O)c3ccccc3c2=O)c(C)n1CCc1ccc(F)cc1 | 8.91%
39 | O=C(NCc1ccccc1OC(F)(F)F)C1CCC(=O)N(Cc2ccccn2)C1 (centres unmarked) | 4.53%
40 | CC1=C(C(=O)c2ccccc2)C(c2cn(-c3ccccc3)nc2-c2ccc(Cl)cc2)NC(=S)N1 (centres unmarked) | 15.8%
41 | O=C1c2cccc3cccc(c23)C(=O)N1Nc1ccccc1 | 12.9%
42 | CC(=O)N1N=C(c2ccc(C)o2)CC1c1ccc(F)cc1 (centres unmarked) | -2.69%
43 | CCCCOC(=O)CCN1C(=O)/C(=C2\SC(=S)N(CCC(=O)OCCCC)C2=O)SC1=S | 10.3%
44 | Cc1ccc(N2C(=O)NC(=O)/C(=C/c3ccc(-c4ccc(C(=O)O)c(Cl)c4)o3)C2=O)cc1 | 1.62%
45 | CC(Oc1ccc(Br)cc1)C(=O)Nc1nnc(C2CC2)s1 (centres unmarked) | 1.93%
46 | COc1cccc(S(=O)(=O)NCc2ccc(C(=O)Nc3cccc(Cl)c3)cc2)c1 | 5.39%
47 | O=C(COC(=O)c1ccc(N2CCCC2=O)cc1)c1ccc(OC(F)F)cc1 | 2.83%
48 | CC1(c2ccc3noc(-c4ccc(F)cc4)c3c2)OCCO1 | 4.23%
49 | O=C(Nc1cc2c(cc1Cl)OCCCO2)c1ccccc1 | 2.67%
50 | Cn1c(=O)oc2cc(S(=O)(=O)N3CCCC(C(=O)NCc4cccs4)C3)ccc21 (centres unmarked) | -1.01%
51 | Cc1cccc2c(C(=O)N3CCCCC3)cc(-c3ccccc3)nc12 | 13.9%
52 | Cc1ccc(NC(=O)COC(=O)C2CC(=O)N(Cc3ccccc3)C2)cc1S(=O)(=O)N(C)C (centres unmarked) | 19%
53 | Cc1cccc(C(=O)NC2CC3CCCC(C2)N3C(=O)NC2CCCCC2)c1 (centres unmarked) | 11.6%
